The results in this text go back to ChEMBL document CHEMBL4888484, “Replenishing the malaria drug discovery pipeline: Screening and hit evaluation of the MMV Hit Generation Library 1 (HGL1) against asexual blood stage Plasmodium falciparum ,using a nano luciferase reporter read-out” (2022).

The whole screen tested about 150,000 compounds, of which about 540 (0.36%) showed an effect of 50% or more. This is one part of the list.

This assay has as its system Plasmodium falciparum. The assay can be described thus: Primary screen in NF54 nanoGlo assay, in single point, at 2uM, 72h; a lower Z score goes with more inhibition. In kind it is functional, Erythrocyte. The settings on record: timepoint 72 hour.
As to `COC(=O)c1cccc(C#Cc2cccc(NC(=O)NCc3cccnc3OC)c2)c1`, the “% Inhibition” value was -6% and the Z score is reported as 1.23.
On to `Cc1nn(CCC(N)=O)c(C)c1-c1cccc(C(=O)NCc2cccs2)c1`, for which the “% Inhibition” value was -11% and the Z score amounted to 1.18.
For `Cc1cnc(-c2ccncc2)n1CCC1CCN(C(=O)C2CCCCC2)CC1`, the “% Inhibition” value is recorded as 2% and the Z score is -0.31.
On the same counts, the results for `CC(C)(C)OC(=O)NCc1cccc(NCc2ccc(CO)o2)c1` are -3% and 0.36.
As for `CC(C)CNC(=O)c1coc(CN2CCN(Cc3cc(F)ccc3F)CC2)n1`, the “% Inhibition” value is -12% and the Z score turned out to be 1.61.
Consider `O=C(Nc1nc(-c2cc(F)ccc2F)cs1)c1cnsn1`, for which the “% Inhibition” value is -8% and the Z score turned out to be 1.46.
For the molecule `CN(CCN1C(=O)NC(C)(C)C1=O)C1CCCCCC1`, the “% Inhibition” value is listed as 1% and the Z score is -0.19.
With `CCOc1ccc(-c2ncnc(N3CCCCC3)c2N)cc1`, the “% Inhibition” value was found to be 3% and the Z score is on record as -0.36.
On to `CC(c1ccc(F)c(F)c1)N(C)C(=O)NCC1CCS(=O)(=O)C1` (stereo unspecified), for which the “% Inhibition” value is listed as -4% and the Z score is on record as 0.58.
On the same counts, the results for `COCCOC1CN(S(=O)(=O)N2CC(C)OC(C)C2)C1` (stereo unspecified) are 1% and -0.15.
`O=c1c2ccccc2ncn1CCN1CCCS1(=O)=O`: the “% Inhibition” value is reported as -10% and the Z score was 1.97.
`CN(CC(C)(C)C)S(=O)(=O)CC[C@H]1CCCO1`: the “% Inhibition” value is given as -7% and the Z score is given as 0.97.
As for `Cc1ccsc1CN(Cc1ccccc1)C(=O)CN(C[C@H]1CCCO1)C(=O)c1cccc(F)c1`, the “% Inhibition” value is reported as 1% and the Z score is listed as -0.12.
As to `O=C1NCCN1C(=O)N1C2CCC1CC(=C1CC1)C2`, the “% Inhibition” value came to 20% and the Z score was -2.65.
Regarding `FC1(F)CC[C@H](Cc2nc(-c3cn[nH]c3)no2)C1`, the “% Inhibition” value is reported as -11% and the Z score is 1.17.
As for `COc1ccc(-c2csc(C)n2)cc1S(=O)(=O)Nc1ccc(F)cc1`, the “% Inhibition” value is -10% and the Z score is recorded as 1.32.
On the same counts, the results for `COCC(=O)Nc1cc(C(=O)N[C@@H](C)Cn2ccc3ccccc32)c2c(c1)nc(C1CCC1)n2C` are -11% and 1.6.
Consider `COc1ccc(CNC(=O)CCc2nnc3c4cc(-c5ccc(Cl)cc5)nn4ccn23)c(OC)c1`, for which the “% Inhibition” value is given as -2% and the Z score is 0.23.
On the same counts, the results for `O=C(N[C@@H]1CCC[C@@H]1n1ccnc1)[C@H](O)c1ccccc1Cl` are 27% and -3.48.
Regarding `COc1ccc(-c2nc3ccc(C(=O)NCCN4CCCCC4)cc3nc2-c2ccc(OC)cc2)cc1`, the “% Inhibition” value came out at 5% and the Z score is -0.71.
In the case of `O=C(O)c1sc(NC[C@H]2CCCO2)nc1C(F)(F)F`, the “% Inhibition” value is 8% and the Z score is -1.05.
Take `C#CCN(C)CC(=O)NC1CCCCC1C` (stereo unspecified): the “% Inhibition” value was 3% and the Z score is on record as -0.36.
As to `Cc1csc(C(=O)NCc2cc(C)ncn2)c1`, the “% Inhibition” value is on record as -3% and the Z score came out at 0.64.
With `C[C@H]1Cc2cc(Cn3ccnc3-c3ccc(C#CCO)s3)ccc2O1`, the “% Inhibition” value is on record as -10% and the Z score was 1.28.
With `COc1ccc([C@H]2CN(C(=O)c3cc(-c4ccccc4)on3)C[C@@H]2N)cc1`, the “% Inhibition” value is reported as -7% and the Z score is 0.9.
Take `O=C1CCC(CCC(=O)N[C@H]2CC[C@@H](C(=O)NC3CCCCC3)C2)=NN1`: the “% Inhibition” value is -1% and the Z score amounted to 0.08.
`CCCCn1nc(COC)nc1-c1cc2cc(OC)ccc2[nH]1`: the “% Inhibition” value is given as -19% and the Z score is 1.95.
For the molecule `COc1cccc(CC(=O)Nc2ccc(N3CCOCC3)nc2)c1`, the “% Inhibition” value is on record as -9% and the Z score is given as 1.11.
Turning to `Cc1ccc(C(=O)Nc2cccc(-c3noc(C4CCCC4)n3)c2)cc1NC(=O)c1ccco1`, the “% Inhibition” value is -12% and the Z score worked out at 2.06.
Regarding `O=C(NC1CCCCC1)N1CCCN(c2nc3cc(Br)ccc3n3cccc23)CC1`, the “% Inhibition” value was 8% and the Z score is -1.4.
On the same counts, the results for `COc1ccc(-n2ccnc2CN(C)CC2(CO)CCOCC2)cc1` are -21% and 1.82.
As to `CCc1nc(NS(=O)(=O)c2cc(Cl)sc2Cl)no1`, the “% Inhibition” value stood at 35% and the Z score is on record as -5.1.
With `CN(CC(=O)N1CC[C@H](O)C1)S(=O)(=O)c1ccc(Br)cc1`, the “% Inhibition” value was -6% and the Z score came out at 1.14.
For `C[C@H](NC(=O)C1CC(=O)N(c2ccccc2)C1)C(=O)Nc1ccc2c(c1)OCO2` (stereo partly specified), the “% Inhibition” value came out at 2% and the Z score is recorded as -0.27.
With `O=C(Nc1ccc(F)c(-c2nnc(-c3ccccc3)o2)c1)Nc1ccccc1C(F)(F)F`, the “% Inhibition” value turned out to be 7% and the Z score is -0.79.
As for `COc1ccc([C@@H](NCc2ncccc2F)C2CC2)c(F)c1`, the “% Inhibition” value is reported as 0% and the Z score is listed as 0.09.
In the same order, the values of `c1ccc2[nH]c(-n3nc([C@H]4CCOC4)nc3-c3ccoc3)nc2c1` are -7% and 1.02.
`COc1ccc2c(c1)CCc1c(C(=O)Nc3cc(Cl)ccc3C)n[nH]c1-2`: the “% Inhibition” value is -3% and the Z score worked out at 0.53.
With `COC(=O)c1cc(NC(=O)N2C[C@H](C)OC(C)(C)C2)cn1C`, the “% Inhibition” value is -13% and the Z score is listed as 1.35.
On the same counts, the results for `O=C(NCc1ccno1)c1ccccc1C(=O)c1ccc(F)cc1` are -6% and 0.96.
`CC(C)n1nnc2cc(S(=O)(=O)N3CCC[C@H](C(=O)NCc4cccc(Cl)c4)C3)ccc21`: the “% Inhibition” value is -20% and the Z score is 1.76.
Regarding `CCOC1CC(CO)(NC(=O)c2cc(C)no2)C1(C)C` (stereo unspecified), the “% Inhibition” value is reported as -19% and the Z score is 2.39.
Turning to `COc1cc(-c2nc(=O)c(CCC(=O)N3CCN(C)CC3)n[nH]2)ccc1OCC1CCC1`, the “% Inhibition” value is on record as -5% and the Z score worked out at 0.84.
As to `COc1c(F)cc(CN2CCC(CNC(=O)c3cnn(C)c3)CC2)cc1F`, the “% Inhibition” value amounted to 20% and the Z score is given as -2.22.
In the same order, the values of `Cc1ccc(S(=O)(=O)NC[C@](C)(O)c2ccsc2)s1` are -13% and 2.47.
On to `C[C@@](CO)(CNCc1cnn2ccccc12)c1ccccc1`, for which the “% Inhibition” value is on record as 0% and the Z score is -0.08.
In the same order, the values of `c1ccc(-c2noc(-c3ccc(N4CCN(c5ccccn5)CC4)nc3)n2)cc1` are 9% and -0.98.
As for `CCCn1nccc1S(=O)(=O)NC(CC)[C@H]1C[C@H](O)C1` (stereo partly specified), the “% Inhibition” value came to 10% and the Z score is listed as -1.33.
`CCc1ccc(S(=O)(=O)Cc2nc(-c3ccc(C(=O)NCc4ccc(Cl)cc4)cc3)oc2C)cc1`: the “% Inhibition” value is given as -17% and the Z score was found to be 2.18.
On to `COc1cccc(-c2c(C(=O)O)nnn2-c2ccc3c(c2)OCO3)c1`, for which the “% Inhibition” value is -17% and the Z score worked out at 1.8.
For `C[C@H](Oc1ccccc1C(N)=O)C(F)(F)F`, the “% Inhibition” value stood at 1% and the Z score is listed as -0.09.
`CN1CCO[C@@H](CN(C)C(=O)c2ccc(C(F)(F)F)cc2N2CCCC2)C1`: the “% Inhibition” value is -4% and the Z score amounted to 0.5.
Take `CN(C(=O)c1csc(=O)[nH]1)C1CCC(CO)CC1` (stereo unspecified): the “% Inhibition” value is reported as -13% and the Z score was 1.64.
Take `O=C(c1c[nH]c(=O)[nH]1)N1CCN(c2ncc(Cl)cn2)CC1`: the “% Inhibition” value is given as -9% and the Z score is recorded as 0.95.
For the molecule `C(=C(C1CC1)C1CC1)c1nc(-c2ccncc2)no1`, the “% Inhibition” value came to 8% and the Z score was -0.98.
`CC1CCC(C(=O)NCC2CCOC2)C2C(=O)N(c3ccccc3)C(=O)C12` (stereo unspecified): the “% Inhibition” value is given as 3% and the Z score was -0.56.
`CCn1cnnc1CNC(=O)c1cc(Br)c[nH]1`: the “% Inhibition” value was -11% and the Z score came to 1.55.
On the same counts, the results for `O=C(c1ccsc1)N1CC(Nc2ccncn2)C1` are -13% and 1.52.
As to `CN(Cc1cnccn1)Cc1nnc(-c2cccs2)o1`, the “% Inhibition” value is on record as 3% and the Z score is given as -0.41.
As to `O=C(NC[C@H](OCCO)c1cccs1)Nc1cccs1`, the “% Inhibition” value was -19% and the Z score is given as 2.99.
For the molecule `CC(=O)Nc1nc(Cc2nc(CC(C)C)nn2-c2ccccn2)n[nH]1`, the “% Inhibition” value is given as 20% and the Z score was -2.52.
For `COc1ccc(CNC(=O)c2cnn3c(-c4ccc(C)c(C)c4)ccnc23)c(OC)c1`, the “% Inhibition” value was determined as 28% and the Z score is -3.13.
Turning to `O=S(=O)(NCCc1c[nH]c2cc(F)ccc12)N1CCOCC1`, the “% Inhibition” value is listed as -17% and the Z score was 3.28.
As for `Cn1nccc1S(=O)(=O)NC1(c2noc(C3CC3)n2)CCCC1`, the “% Inhibition” value is reported as -13% and the Z score is reported as 1.98.
For `CCN1C[C@@H](CN(C)C(=O)c2ccc(CN3CCc4ccccc4C3)cc2)CC1=O`, the “% Inhibition” value worked out at 4% and the Z score is -0.93.
For the molecule `Cc1ccc2ccccc2c1CN1C[C@@H]2CC[C@H]1CN(CC(=O)N(C)C)C2`, the “% Inhibition” value is given as -4% and the Z score is 0.69.
Consider `CCOC(=O)c1c(CN2CCOCC2)n(-c2ccc(C)cc2)c2ccc(Oc3nccc(Nc4ccccc4)c3C#N)cc12`, for which the “% Inhibition” value is on record as 40% and the Z score is given as -5.22.
Regarding `CC(C)N(C(=O)[C@H](C)OC(=O)CNC(=O)c1ccc(Cl)c(Cl)c1)C(C)C`, the “% Inhibition” value is given as -5% and the Z score stood at 0.95.
As to `CC[C@H]1OCC[C@@H]1NC(=O)c1cccnc1C`, the “% Inhibition” value is reported as -4% and the Z score turned out to be 0.87.
As to `COc1cc2cc(C(=O)NCCOc3c(C)cccc3C)[nH]c2c(OC)c1OC`, the “% Inhibition” value is on record as 0% and the Z score was 0.01.
As to `COc1ccc(CCNC(=O)Cn2nc(C)c3ccccc32)cc1OC`, the “% Inhibition” value is on record as -4% and the Z score was determined as 0.87.
Consider `CC(C)N(CCN(C)C)C(=O)C(=O)Nc1c(F)cccc1F`, for which the “% Inhibition” value is -15% and the Z score is 1.97.
On to `CN(Cc1nc(-c2ccncc2)no1)S(=O)(=O)[C@H]1CCS(=O)(=O)C1`, for which the “% Inhibition” value is -21% and the Z score is 1.88.
Take `O=C(NCC1(c2ccsc2)CCCC1)Nc1ccccc1`: the “% Inhibition” value is reported as -3% and the Z score is listed as 0.62.
As for `CC1CN(C(C)C)CC1NC(=O)c1cccc(CC#N)c1` (stereo unspecified), the “% Inhibition” value is listed as -14% and the Z score was determined as 2.16.
As for `O=S(=O)(NCC1(OCCO)CCCC1)c1ccccc1`, the “% Inhibition” value is listed as -2% and the Z score is 0.32.
In the same order, the values of `Cc1cccc(CN(Cc2cccc(C)n2)C[C@H]2CCCCO2)n1` are 90% and -9.86.
On the same counts, the results for `COC[C@@H]1[C@H](C(=O)Nc2ccc(OC)nc2)CCC(=O)N1C` are 4% and -0.5.
`Cc1c(Cl)cccc1NC(=O)c1ccc2c(c1)N(C)C(=O)c1ccccc1O2`: the “% Inhibition” value is -4% and the Z score is on record as 0.51.
Take `CC[C@H]1C(=O)N(CC)CCN1C(=O)c1csc(NC(C)=O)n1`: the “% Inhibition” value is on record as -5% and the Z score was found to be 0.63.
As to `Cn1cc(-c2ccccc2)cc1C(=O)N1CCCCC1`, the “% Inhibition” value came out at 6% and the Z score is -0.93.
On to `Cn1cc(CCC(=O)N(Cc2ccsc2)c2cccnc2)cn1`, for which the “% Inhibition” value is -11% and the Z score is given as 1.41.
With `O=C1COc2ncc(C(=O)Nc3ccnn3C3CCC3)cc2N1`, the “% Inhibition” value is recorded as -12% and the Z score is recorded as 1.69.

One may read the % Inhibition as the change of the read-out against control, counted positive when it falls.
